# The other results are listed elsewhere or left out. Sequences were assembled here from the parent chain. Values near 0.05 are background.
# B1: TEV protease; numbered along this chain (parent)
# chain: MGESLFKGPRDYNPISSSICHLTNESDGHTTSLYGIGFGPFIITNKHLFRRNNGTLVVQSLHGVFKVKDTTTLQQHLVDGRDMIIIRMPKDFPPFPQKLKFREPQREERICLVTTNFQTKSMSSMVSDTSCTFPSGDGIFWKHWIQTKDGQCGSPLVSTRDGFIVGIHSASNFTNTNNYFTSVPKNFMELLTNQEAQQWVSGWRLNADSVLWGGHKVFMVKPEEPFQPVKEATQL
# Variants of: B1
# Assay: raw area under fraction-flipped curve 0-4 h after induction (AUC4h, not background-subtracted), DNA-recorder readout of cleavage of the substrate (dimensionless); higher = more cleavage of the substrate by the protease variant
# Settings: temperature: 34 °C; time window: 0-4 h after rhamnose induction
# 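Further: Bxb1 expression induced with 0.2% (w/v) L-rhamnose at OD600 near 0.5, cultures sampled hourly, flipped fraction per protease–substrate barcode pair counted by paired-end Illumina sequencing.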
Variant,area with substrate ENLYFQD,area with substrate ENLYFQG,area with substrate ENLYFQP,area with substrate ENLYFQR,area with substrate ENLYFQS,area with substrate ENLYFQT,area with substrate ENLYFQY,area with substrate ENLYFQI,area with substrate ENLYFQL,area with substrate ENLYFQN,area with substrate ENLYFQW,area with substrate ENLYFQC,area with substrate ENLYFQK,area with substrate ENLYFQV,area with substrate ENLYFQE,area with substrate ENLYFQH,area with substrate ENLYFQM,area with substrate ENLYFQF,area with substrate ENLYFQQ
MGESLIKGPRDYNPISSSICHLTNESDGHTTSLYGIGFGPFIITNKHLFRRNNGTLVVQSLHGVFKVKDTTTLQQHLVDGRDMIIIRMPKDFPPFPQKLKFREPQREERICLVTTNFQTKSMSSMVSDTSCTFPSGDGIFWKHWIQTKDGQCGSPLVSTRDGFIVGIHSASNFTNTNNYFTSVPKNFMELLTNQEAQQWVSGWRLNADSVLWGGHKVFMVKPEEPFQPVKEATQL [F6I],0.0713,0.121,0.0699,0.087,0.11,0.0676,0.0796,–,–,–,–,–,–,–,–,–,–,–,–
MGESLFKGPRDYNPISSSICHLTNESDGHTTSLYGIGFGPFIITNKHLFIRNNGTLVVQSLHGVFKVKDTTTLQQHLVDGRDMIIIRMPKDFPPFPQKLKFREPQREERICLVTTNFQTKSMSSMVSDTSCTFPSGDGIFWKHWIQTKDGQCGSPLVSTRDGFIVGIHSASNFTNTNNYFTSVPKNFMELLTNQEAQQWVSGWRLNADSVLWGGHKVFMVKPEEPFQPVKEATQL [R50I],0.0529,–,–,0.0739,0.135,0.0663,–,0.0597,0.0886,0.0904,0.0567,–,–,–,–,–,–,–,–
MGESLFKGPRDYNPISSSICHLTNESDGHTTSLYGIGFGPFIITNKHLFRRNNGTLVVQSLHGVFKVKDTTTLQQHLVDGRDMIIIRMPKDFPPFPQKLKFREPQREERICLVTTNFQTKSMSSMVSDTSCTFPSGDGIFWKHWIQTKDGQCGSPLVSTRDGFIVGIHSASNFTNTNNYFTSVPKNFMELLTNQEAQQWVSGWRLNADSVLWGGHKVFMVKPEEPFQPVKEATQK [L235K],–,0.149,–,0.0607,0.117,0.068,0.0866,–,0.0676,–,0.06,0.148,0.0596,0.0612,–,–,–,–,–
MRESLFKGPRDYNPISSSICHLTNESDGHTTSLYGIGFGPFIITNKHLFRRNNGTLVVQSLHGVFKVKDTTTLQQHLVDGRDMIIIRMPKDFPPFPQKLKFREPQREERICLVTTNFQTKSMSSMVSDTSCTFPSGDGIFWKHWIQTKDGQCGSPLVSTRDGFIVGIHSASNFTNTNNYFTSVPKNFMELLTNQEAQQWVSGWRLNADSVLWGGHKVFMVKPEEPFQPVKEATQL [G2R],0.08,–,–,0.0617,0.124,0.0601,0.0915,0.0431,0.0668,0.0787,0.0702,–,–,–,0.0987,0.0916,0.126,–,–
MGESLFKGPRDYNPISSSICHLTNESDGHTTSLYGIGFGPFIITNKHLFRRNNGTLVVQSLHGVFKVKDTTTLQQHLVDGRDMIIIRMPKDFPPFPQKLKFREPQREERICLVTTNFQTKSMSSMVSDTSCTFPSGDGIFWKHWIQTKDGQCGSPLVSTRDGFIVGIHSASNFTNTNNYFTSVPKNFMELLTNQEAQQWVSGWRLNADSVLWGGHKVFMVKPEEPFQPVKEATYL [Q234Y],0.0579,0.0823,0.0682,0.0547,0.0957,0.071,0.0744,0.0423,0.0576,0.0715,0.0739,0.154,0.0629,–,0.0616,0.0669,0.0884,0.0498,–
MGESLFKGPRDYNPISSSICHLTNESDGHTTSLYGIGFGPFIITNKHLFRRNNGTLVVQSLHGVFKVKDTTTLQQHLVDGRDMIIIRMPKDFPPFPQKLKFREPQREERICLVTTNFQTKSMSSMVSDTSCTFPSGDGIFWKHWIQTKDGQCGSPLVSTRDGFIVGIHSASNFTNTNNYFTSVPKNFMELLTNQEAQQWVSGWRLNADSVLWGGHKVFMVKPEEPFQPVKEATAL [Q234A],0.0611,–,0.0641,0.0453,0.0979,0.0756,0.0374,0.0621,0.0607,–,0.0595,0.101,0.0642,0.0553,–,–,0.0798,–,–
MGESLFKGPRDYNPISSSICHLTNEYDGHTTSLYGIGFGPFIITNKHLFRRNNGTLVVQSLHGVFKVKDTTTLQQHLVDGRDMIIIRMPKDFPPFPQKLKFREPQREERICLVTTNFQTKSMSSMVSDTSCTFPSGDGIFWKHWIQTKDGQCGSPLVSTRDGFIVGIHSASNFTNTNNYFTSVPKNFMELLTNQEAQQWVSGWRLNADSVLWGGHKVFMVKPEEPFQPVKEATQL [S26Y],0.0582,0.0769,–,–,0.0751,0.0726,–,0.0461,–,0.0697,0.0717,–,0.0734,0.0469,–,0.0518,0.0692,–,–
MGESNFKGPRDYNPISSSICHLTNESDGHTTSLYGIGFGPFIITNKHLFRRNNGTLVVQSLHGVFKVKDTTTLQQHLVDGRDMIIIRMPKDFPPFPQKLKFREPQREERICLVTTNFQTKSMSSMVSDTSCTFPSGDGIFWKHWIQTKDGQCGSPLVSTRDGFIVGIHSASNFTNTNNYFTSVPKNFMELLTNQEAQQWVSGWRLNADSVLWGGHKVFMVKPEEPFQPVKEATQL [L5N],0.064,–,0.0551,0.0451,0.123,0.0629,–,–,–,0.0776,–,–,–,–,–,–,0.101,–,0.087
MGESLFKGPRDYNPISSSICHLTNESDGHTTSLYGIGFGPFIITNKHLFRRNNETLVVQSLHGVFKVKDTTTLQQHLVDGRDMIIIRMPKDFPPFPQKLKFREPQREERICLVTTNFQTKSMSSMVSDTSCTFPSGDGIFWKHWIQTKDGQCGSPLVSTRDGFIVGIHSASNFTNTNNYFTSVPKNFMELLTNQEAQQWVSGWRLNADSVLWGGHKVFMVKPEEPFQPVKEATQL [G54E],0.0662,0.0726,–,0.0564,0.075,0.0731,–,0.0536,–,0.0624,–,–,0.0602,–,–,–,–,0.0546,–
MGESLFKGPRDYNPISSSICHLTNESDGHTTSLYGKGFGPFIITNKHLFRRNNGTLVVQSLHGVFKVKDTTTLQQHLVDGRDMIIIRMPKDFPPFPQKLKFREPQREERICLVTTNFQTKSMSSMVSDTSCTFPSGDGIFWKHWIQTKDGQCGSPLVSTRDGFIVGIHSASNFTNTNNYFTSVPKNFMELLTNQEAQQWVSGWRLNADSVLWGGHKVFMVKPEEPFQPVKEATQL [I36K],0.0395,–,–,0.0386,0.041,–,–,–,0.0482,–,0.0767,–,0.0461,0.0421,–,0.0435,0.0391,–,–
